# The list shows a part of the results. Sequences were assembled here from the parent chain. Values near 0.05 are background.
# B1: TEV protease; numbered along this chain (parent)
# chain: MGESLFKGPRDYNPISSSICHLTNESDGHTTSLYGIGFGPFIITNKHLFRRNNGTLVVQSLHGVFKVKDTTTLQQHLVDGRDMIIIRMPKDFPPFPQKLKFREPQREERICLVTTNFQTKSMSSMVSDTSCTFPSGDGIFWKHWIQTKDGQCGSPLVSTRDGFIVGIHSASNFTNTNNYFTSVPKNFMELLTNQEAQQWVSGWRLNADSVLWGGHKVFMVKPEEPFQPVKEATQL
# Variants of: B1
# Test: raw area under fraction-flipped curve 0-4 h after induction (AUC4h, not background-subtracted), DNA-recorder readout of cleavage of the substrate (dimensionless); higher = more cleavage of the substrate by the protease variant
# Details: temperature: 34 °C; time window: 0-4 h after rhamnose induction
# Experimental: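 In vivo DNA recorder in E. coli TOP10(DE3) ΔrhaA at 34 °C. Each TEVp single-site mutant (parent TEVp 0) is paired with a single-site variant of the 7-mer TEVs (canonical ENLYFQ|S). The substrate sits between flexible linkers in a Bxb1-sfGFP-TEVs-SsrA fusion, so cleavage stabilises Bxb1 and speeds flipping of a recombination array, read by NGS. The value is the raw area under the fraction-flipped curve over 0-4 h after rhamnose induction (AUC4h), with ≥20 reads per time point. It is not background-subtracted; inactive controls average about 0.047.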
# 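Further: Bxb1 expression induced with 0.2% (w/v) L-rhamnose at OD600 near 0.5, cultures sampled hourly, flipped fraction per protease–substrate barcode pair counted by paired-end Illumina sequencing.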
Variant,area with substrate ENLYFQA,area with substrate ENLYFQC,area with substrate ENLYFQD,area with substrate ENLYFQF,area with substrate ENLYFQG,area with substrate ENLYFQH,area with substrate ENLYFQI,area with substrate ENLYFQK,area with substrate ENLYFQL,area with substrate ENLYFQM,area with substrate ENLYFQN,area with substrate ENLYFQP,area with substrate ENLYFQQ,area with substrate ENLYFQR,area with substrate ENLYFQS,area with substrate ENLYFQT,area with substrate ENLYFQV,area with substrate ENLYFQW,area with substrate ENLYFQY,area with substrate ENLYFQE
K148G,0.0841,0.094,0.0679,0.0576,0.0619,0.0782,0.0605,0.0639,0.0605,0.0744,0.0762,0.0682,0.059,0.0596,0.0862,0.0557,0.0572,0.0584,0.0547,
C152S,0.0787,0.097,,,0.0547,,,0.0586,0.0531,0.0569,0.0621,0.0574,,0.0546,0.0763,0.0485,0.0659,0.104,,0.0644
F173A,0.0812,0.0941,0.0614,0.0633,,,0.0654,0.0604,0.059,0.0736,0.0591,,0.0693,0.0718,0.094,0.0732,,,,
H168W,0.0569,0.0619,0.0546,,0.0667,0.0602,0.0532,0.0495,0.0633,0.0663,0.058,0.0658,0.0649,0.0436,0.0622,0.0518,,0.0573,0.0568,0.0655
F163R,0.116,0.118,0.0722,,,0.0705,0.0581,0.0427,0.0576,,0.0979,0.0584,0.0827,0.0678,0.109,0.069,,0.0715,,
F180L,0.139,0.12,0.0859,,0.0948,,,,,0.0713,,,,,0.119,,,0.0841,,
T176Y,0.082,0.0685,0.0559,0.049,0.0896,,0.0668,0.0449,0.0554,0.0502,0.053,0.0597,0.0531,,0.0692,0.0604,,,,
H143A,0.0942,0.105,0.064,0.0627,0.0665,0.0959,,0.049,0.0602,0.0701,0.0786,0.0523,0.0619,0.0542,0.0949,0.0479,,0.0511,0.0625,0.0652
H143P,0.0919,0.0573,0.0632,,0.0558,0.0537,0.0505,0.0621,0.0515,,0.0492,0.0572,,0.0616,0.0555,0.0625,0.0499,0.0513,0.0527,
I139A,0.125,,,0.0562,,0.0479,0.0627,0.0659,0.0584,0.143,,,,0.0594,0.122,0.0612,,,0.108,0.0662
I139S,0.0988,0.161,,0.0987,0.135,0.0696,,0.0692,0.0694,,0.0985,,0.117,0.0649,0.126,0.0765,,0.0573,0.0602,
I139G,0.111,0.124,0.0757,0.0707,0.104,0.0842,0.0527,,0.0463,0.0675,0.0791,0.0459,,0.0572,0.11,0.0627,0.0585,0.0599,0.0556,
I167W,0.0593,0.0745,,0.0697,0.0684,,0.0479,0.0606,0.0547,0.0571,0.0505,0.0692,0.0566,0.0549,0.0598,0.072,0.0587,0.0623,,0.0467
N175F,0.0863,0.0822,0.0592,0.0726,0.075,0.0668,0.061,0.0722,0.0603,0.0784,,,0.0567,0.0856,0.0868,0.0579,0.075,0.0907,,0.0697
S171E,0.0534,0.0533,,0.0558,,0.0735,,0.058,,,0.081,,,0.0501,0.0622,0.0963,0.0615,,0.0517,
P155A,0.108,0.11,0.0781,,0.113,,0.0628,,0.066,0.0689,0.0752,,,0.0508,0.101,0.0683,0.0559,0.0534,,0.0613
P155S,0.0355,,0.0852,0.0506,0.0576,0.0543,0.0521,0.0689,0.0514,0.0479,,0.0504,,0.0489,0.0646,,0.0636,,0.0526,
P155W,0.0522,0.0533,,,,0.0487,0.0393,0.0466,0.0413,0.0507,0.0777,,,0.0505,0.0535,0.0492,0.0692,0.0623,0.0548,0.0733
P155L,0.0509,0.0635,,0.0518,0.066,0.0434,,0.0532,0.0502,0.0494,0.0445,0.0777,0.0693,0.0588,0.0586,0.0538,0.0672,0.0535,,0.0515
L156W,0.062,0.0627,0.0654,0.0424,0.0617,0.059,0.0596,0.0601,0.0567,0.0586,0.0524,0.0701,0.0448,0.0542,0.0599,0.0587,0.058,0.0551,0.0595,0.0568
T147N,0.0662,0.0741,0.0447,,0.0659,0.0693,0.0556,0.0583,0.0527,0.0596,0.0599,0.0576,0.0509,,0.0655,0.0486,0.0622,0.0466,,
D161K,0.0558,0.0635,,0.0467,0.0566,0.0638,0.0523,0.0643,0.0536,0.0546,0.0487,,,0.0575,0.0605,0.0619,0.0473,0.0418,0.066,
D161F,0.0587,0.0416,0.0377,,,,,0.05,0.0418,0.0623,,,,,0.0582,,,0.0516,0.0611,
D161C,0.1,,,0.0787,,0.0627,,0.0647,0.0558,0.0602,0.0619,,0.0331,0.0656,0.0758,0.0789,0.0398,0.0538,0.0671,0.054

# Reference: the supplement of paper PMC12217912
